According to the supplement of paper PMC5655136:
These are enrichments in a pooled selection; single values are uncertain.

Tested on: NB7
Experiment: fold depletion of shRNA, plasmid library share / infected cells without Dox share (9 days) (ratio); higher = more depleted after infection (more toxic, leaky expression from a Tet-inducible vector; NB7 is a neuroblastoma line without caspase-8)
Conditions: shRNA pool: CD95L ORF + CD95L 3'UTR + Venus libraries
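Further: shRNA barcodes quantified by deep sequencing of PCR amplicons from cellular DNA, counts expressed as percent of each subpool, ratio averaged over two biological duplicates.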

| Sequence | fold depletion of shRNA |
| --- | --- |
| CATCAAGGCCAACTTCAAGAT | 1.25 |
| CATCATCTTTGGAGAAGCAAA | 0.561 |
| CATCCTGGGGCACAAGCTGGA | 0.991 |
| CATCCTGGTCGAGCTGGACGG | 1.04 |
| CATCGACTTCAAGGAGGACGG | 1.52 |
| CATCGAGCTGAAGGGCATCGA | 0.681 |
| CATCGAGGACGGCGGCGTGCA | 0.453 |
| CATCGGCGACGGCCCCGTGCT | 0.944 |
| CATCGGTGAAACTAACAGATA | 1.86 |
| CATCTTAGTGCCTGAGAGTAT | 2.06 |
| CATCTTCACTTCTAAATGCAT | 1.3 |
| CATCTTCTTCAAGGACGACGG | 1.16 |
| CATCTTTGGAGAAGCAAATAG | 0.627 |
| CATGAAAAAGCAGCTACCAGG | 0.389 |
| CATGAACCAAGTGGACCTTGA | 2.7 |
| CATGAAGCAGCACGACTTCTT | 0.798 |
| CATGAGGAACTCTAAGTATCC | 0.856 |

| Sequence | fold depletion of shRNA |
| --- | --- |
| CATGCCCGAAGGCTACGTCCA | 0.911 |
| CATGCCTCTGGAATGGGAAGA | 0.751 |
| CATGGACGAGCTGTACAAGTA | 1.02 |
| CATGGTCCTGCTGGAGTTCGT | 0.745 |
| CATGGTTCTGGTTGCCTTGGT | 1.53 |
| CATGGTTGTGACCTGAGGATT | 0.629 |
| CATGTAATAAAAAGTATATGT | 0.502 |
| CATGTGAAGAGGGAGAAGCAT | 3.79 |
| CATGTGTATTTCCAGTGCAAT | 1.43 |
| CATTATGATTCTTTGTTACAG | 0.57 |
| CATTCCTAACACAGCATGTGT | 1.59 |
| CATTGATTGTCAGCTACTAAT | 0.587 |
| CATTTAACAGGCAAGTCCAAC | 0.739 |
| CATTTATATGTCAACGTATCT | 0.382 |
| CATTTCATTCCTAACACAGCA | 1.25 |
| CATTTGAGGTCAAGTAAGAAG | 1.02 |
| CATTTGGTCAAGATTTTGAAT | 1.54 |

Same assay, conditions: shRNA pool: CD95 ORF + CD95 3'UTR + Venus libraries

| Sequence | fold depletion of shRNA |
| --- | --- |
| CATCAAGGCCAACTTCAAGAT | 1.06 |
| CATCATCTGGATTTAGGAATT | 0.69 |
| CATCCTCAAGGACATTACTAG | 1.41 |
| CATCCTGGGGCACAAGCTGGA | 0.911 |
| CATCCTGGTCGAGCTGGACGG | 0.789 |
| CATCGACTTCAAGGAGGACGG | 1.43 |
| CATCGAGCTGAAGGGCATCGA | 0.824 |
| CATCGAGGACGGCGGCGTGCA | 0.385 |
| CATCTAACATATGATTCTGTA | 0.795 |
| CATCTGGATTTAGGAATTGCT | 0.931 |
| CATCTTCTTCAAGGACGACGG | 0.929 |
| CATGAACCCATGTTTGCAATC | 3.16 |
| CATGAAGCAGCACGACTTCTT | 1.22 |
| CATGAATCTCCAACTTTAAAT | 0.587 |
| CATGACACTAAGTCAAGTTAA | 0.694 |
| CATGATTCTGCCTCCAAGGAT | 4.73 |
| CATGCAGAAAGCACAGAAAGG | 2.05 |
| CATGCCCGAAGGCTACGTCCA | 0.821 |

| Sequence | fold depletion of shRNA |
| --- | --- |
| CATGCTAAGTACCCAAATAGG | 0.206 |
| CATGGAAAGAAAGAAGCGTAT | 0.571 |
| CATGGAAATATCACCAAAAAA | 0.809 |
| CATGGAATCATCAAGGAATGC | 0.776 |
| CATGGACGAGCTGTACAAGTA | 0.865 |
| CATGGCTTAGAAGTGGAAATA | 0.999 |
| CATGGTCCTGCTGGAGTTCGT | 0.817 |
| CATGTAAAACCTGCTACAAAT | 1.43 |
| CATGTCATGAACCCATGTTTG | 1.42 |
| CATGTTTGCAATCAAAGATGA | 0.81 |
| CATTAAATTATAATGTTTGAC | 1.07 |
| CATTACTAGTGACTCAGAAAA | 0.543 |
| CATTGATTAAAGATCTCAAAA | 0.708 |
| CATTTATGGAGGATTTTTTTG | 1.25 |
| CATTTATTAGCGCTGAAGAGC | 1.19 |
| CATTTTACTGGCTCAAAACTA | 1.16 |
| CATTTTATCATTTATTAGCGC | 1.18 |
